These are yes or no findings as the source states them, for the method shown. In cells and extracts the contact can be indirect. Some entries that bind do so weakly or less than the wild type. For some assays here: Sequences can lack the tags named with a protein.

Amino acid sequences for entries named in this document (tags omitted). Residues count along the entry.
UniProt P12154: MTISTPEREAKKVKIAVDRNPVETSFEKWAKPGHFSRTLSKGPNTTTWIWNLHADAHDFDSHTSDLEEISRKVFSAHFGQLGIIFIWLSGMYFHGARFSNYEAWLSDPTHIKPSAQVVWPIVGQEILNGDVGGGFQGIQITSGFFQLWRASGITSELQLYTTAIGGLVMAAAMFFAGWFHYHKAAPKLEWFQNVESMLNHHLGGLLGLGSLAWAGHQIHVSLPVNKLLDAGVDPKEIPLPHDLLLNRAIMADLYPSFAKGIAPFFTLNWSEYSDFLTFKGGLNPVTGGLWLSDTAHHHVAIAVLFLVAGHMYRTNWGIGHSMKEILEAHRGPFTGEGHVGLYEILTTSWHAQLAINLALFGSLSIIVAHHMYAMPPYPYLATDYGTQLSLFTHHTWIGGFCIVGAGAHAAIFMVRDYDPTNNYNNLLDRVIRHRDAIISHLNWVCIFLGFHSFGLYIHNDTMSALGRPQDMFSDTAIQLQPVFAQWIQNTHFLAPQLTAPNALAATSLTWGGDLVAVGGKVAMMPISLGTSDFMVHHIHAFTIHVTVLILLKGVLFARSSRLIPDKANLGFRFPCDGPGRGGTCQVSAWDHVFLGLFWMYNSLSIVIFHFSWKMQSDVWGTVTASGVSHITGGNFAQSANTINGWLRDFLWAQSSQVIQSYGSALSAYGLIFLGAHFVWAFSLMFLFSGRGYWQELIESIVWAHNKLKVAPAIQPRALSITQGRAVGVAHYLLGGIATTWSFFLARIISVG
UniProt P09144: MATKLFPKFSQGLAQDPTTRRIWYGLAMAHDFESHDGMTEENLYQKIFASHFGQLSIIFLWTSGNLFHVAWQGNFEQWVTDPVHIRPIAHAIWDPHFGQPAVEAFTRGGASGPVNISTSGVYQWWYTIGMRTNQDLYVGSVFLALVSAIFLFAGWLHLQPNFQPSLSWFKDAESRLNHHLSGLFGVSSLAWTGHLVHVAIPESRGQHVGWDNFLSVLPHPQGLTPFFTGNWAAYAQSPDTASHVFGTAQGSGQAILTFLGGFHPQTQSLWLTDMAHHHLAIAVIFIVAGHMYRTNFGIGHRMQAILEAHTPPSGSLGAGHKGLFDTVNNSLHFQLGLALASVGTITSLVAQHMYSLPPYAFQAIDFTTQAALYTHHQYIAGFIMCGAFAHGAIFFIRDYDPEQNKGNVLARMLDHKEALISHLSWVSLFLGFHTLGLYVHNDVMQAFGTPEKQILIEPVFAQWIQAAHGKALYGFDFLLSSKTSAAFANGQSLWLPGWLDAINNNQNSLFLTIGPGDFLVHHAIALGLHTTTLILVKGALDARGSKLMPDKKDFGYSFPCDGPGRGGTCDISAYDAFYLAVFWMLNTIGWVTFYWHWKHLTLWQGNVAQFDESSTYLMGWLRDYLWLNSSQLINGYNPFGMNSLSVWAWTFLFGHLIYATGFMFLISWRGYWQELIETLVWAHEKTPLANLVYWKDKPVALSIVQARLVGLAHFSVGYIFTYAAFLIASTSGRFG
UniProt P12352, residues 25-97: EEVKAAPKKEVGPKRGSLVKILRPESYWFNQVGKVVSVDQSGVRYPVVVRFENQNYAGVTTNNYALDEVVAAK

From paper PMC6015050 come the findings set out here.

The target in assay [1] is T1, Ycf4 fused with HA tag at the N-terminus (HA-Ycf4) (C. reinhardtii) (UniProt O20030).
T1 sequence: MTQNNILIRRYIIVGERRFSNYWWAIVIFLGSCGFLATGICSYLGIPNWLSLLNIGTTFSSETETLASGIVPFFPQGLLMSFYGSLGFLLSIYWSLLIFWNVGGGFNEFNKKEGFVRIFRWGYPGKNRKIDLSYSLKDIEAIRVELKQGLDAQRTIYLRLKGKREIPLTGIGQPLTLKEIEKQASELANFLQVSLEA
The assay is described as follows: co-IP; HA-Ycf4 from thylakoid extracts (1% β-DM) of the HA-ycf4 mutant on anti-HA beads, 1 h, eluted with HA peptide; stained gel and immunoblot; also from cells pulse-labelled with 35S (10 min) and chased 6 h, autoradiography; WT extract as negative control.

The target in assay [2] is T2, Ycf3 fused with HA-tag at the C-terminus (Ycf3-HA) (C. reinhardtii) (UniProt O20031).
T2 sequence: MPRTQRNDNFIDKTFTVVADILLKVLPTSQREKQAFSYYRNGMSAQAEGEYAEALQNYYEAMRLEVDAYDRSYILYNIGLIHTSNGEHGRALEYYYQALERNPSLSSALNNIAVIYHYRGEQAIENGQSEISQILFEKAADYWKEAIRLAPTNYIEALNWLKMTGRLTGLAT
In words: co-IP; Ycf3-HA from thylakoid extracts (1% α-DM) of the ycf3-HA mutant on anti-HA beads in a spin column, 1 h, eluted with HA peptide; stained gel and immunoblot; also from cells pulse-labelled with 35S (10 min) and chased 6 h, autoradiography; WT extract as negative control. In general terms: A western blot detects proteins with antibodies after separation by electrophoresis.

Assay [3] deals with T1, Ycf4 fused with HA tag at the N-terminus (HA-Ycf4) (C. reinhardtii). In words: co-IP; affinity-purified HA-Ycf4 preparation (anti-HA beads, β-DM), concentrated and fractionated by sucrose density gradient ultracentrifugation; fractions Y1, Y2, Y3 analysed by stained gel and immunoblot.
Assay [4] concerns the target PsaA (C. reinhardtii (endogenous in C. reinhardtii)) (UniProt P12154). In words: co-sedimentation; affinity-purified Ycf3-HA preparation, concentrated, sucrose density gradient (0.1-1.3 M sucrose, 5 mM Tricine-NaOH pH 8.0, 0.05% DM), 202,000 x g, 16 h; fractions immunoblotted.
Assay [5] addresses T1, Ycf4 fused with HA tag at the N-terminus (HA-Ycf4) (C. reinhardtii). The assay is described as follows: co-sedimentation; affinity-purified HA-Ycf4 preparation on a sucrose density gradient (0.1-1.3 M sucrose, 5 mM Tricine-NaOH pH 8.0, 0.05% DM), 202,000 x g, 16 h; HA-Ycf4 followed by immunoblot.

Turning to PsaA (from UniProt P12154 1-751), the binding entry in assay [1], in assay [2] and in assay [3] was “binds” each time.

Consider PsaB (from UniProt P09144 1-735), for which the binding entry in assay [1], in assay [2] and in assay [3] was “binds” in each case.

Take PSAE (from UniProt P12352 25-97): the binding entry in assay [1] and in assay [3] was “binds” each time.

B1: endogenous Ycf4 (protein, UniProt O20030 1-197)
chain: T1 sequence
With B1, the binding entry in assay [1], in assay [2] and in assay [4] was “binds” each time.

B2: Ycf4 fused with HA tag at the N-terminus (HA-Ycf4) (protein, UniProt O20030 1-197)
chain: T1 sequence
Regarding B2, the binding result in assay [5] was “binds”.

B3: PSAF (protein, UniProt P12356 63-227)
chain: DIAGLTPCSESKAYAKLEKKELKTLEKRLKQYEADSAPAVALKATMERTKARFANYAKAGLLCGNDGLPHLIADPGLALKYGHAGEVFIPTFGFLYVAGYIGYVGRQYLIAVKGEAKPTDKEIIIDVPLATKLAWQGAGWPLAAVQELQRGTLLEKEENITVSPR
Take B3: the binding entry in assay [1], in assay [2] and in assay [3] was “binds” throughout.

B4: PSAG (protein, UniProt P14224 31-126)
chain: ALDPQIVISGSTAAFLAIGRFVFLGYQRREANFDSTVGPKTTGATYFDDLQKNSTIFATNDPAGFNIIDVAGWGALGHAVGFAVLAINSLQGANLS
B4: the binding result in assay [3] is on record as “no binding”.

B5: PSAD (protein, UniProt Q39615 36-196)
chain: EAEAAPAAAKKAAEKPAWTVPTLNPDTPSPIFGGSTGGLLRKAQTEEFYVITWEAKKEQIFEMPTGGAAIMRQGPNLLKFGKKEQCLALTTQLRNKFKLTPCFYRVFPDGKVQYLHPADGVYPEKVNAGRVGANQNMRRIGQNVNPIKVKFSGRMMSPAEI
For the molecule B5, the binding entry in assay [1] is recorded as “binds”; in assay [2], “no binding”; in assay [3], “binds”.

B6: PSAK (protein, UniProt P14225 27-113)
chain: DGFIGSSTNLIMVASTTATLAAARFGLAPTVKKNTTAGLKLVDSKNSAGVISNDPAGFTIVDVLAMGAAGHGLGVGIVLGLKGIGAL
Take B6: the binding entry in assay [3] was “no binding”.

B7: PsaC (protein, UniProt Q00914 1-81)
chain: MAHIVKIYDTCIGCTQCVRACPLDVLEMVPWDGCKASQMASAPRTEDCVGCKRCETACPTDFLSVRVYLGSESTRSMGLSY
Regarding B7, the binding result in assay [1] is given as “binds”; in assay [2] it was “no binding”; in assay [3] it was “binds”.

B8: endogenous Ycf3 (protein, UniProt O20031 1-172)
chain: T2 sequence
For B8, the binding entry in assay [1] and in assay [2] was “binds” each time.

B9: PSAH (protein, UniProt P13352 31-130)
chain: KYGENSRYFDLQDMENTTGSWDMYGVDEKKRYPDNQAKFFTQATDIISRRESLRALVALSGIAAIVTYGLKGAKDADLPITKGPQTTGENGKGGSVRSRL
For the molecule B9, the binding result in assay [1] is on record as “binds”.
